Data reported in PubChem BioAssay AID1458 (National Center for Advancing Translational Sciences (NCATS), 2008).
Out of some 210,000 compounds screened, about 5,900 (2.8%) were called active. Inconclusive results, whose numbers are uncertain, are shown with a selection of clear calls. Calls come from the whole dose curve; as a rule, active = well fitted activation curve with a large enough effect; inconclusive = small, poorly fitted or top-dose-only effect; inactive = no such curve, though single readings can be large or run the other way. Where the call is inconclusive, the potency comes from a doubtful curve fit.

Assay: qHTS Assay for Enhancers of SMN2 Splice Variant Expression; note: nearly all actives have a fitted effect of over 55% in size; for activity change, positive = activation: % of control where 0% means no effect
Details: HEK293 SMN2-luciferase splicing reporter, luminescence, 30-36 h; activity change, positive = activation: at 46.1 µM (top of the series)
Summary of the method: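 qHTS luciferase splicing reporter: luminescence rises when SMN2 exon 7 is included in transfected HEK293 cells. Compound exposure lasted 30-36 h at 37C, with 4.5 mM final sodium butyrate as control, followed by a ONE-Glo read.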
Potency is the fitted concentration of half-maximal effect; tags give direction and shape of the fitted curve.

Question: For `CC(Sc1ccc2c(c1)OCCO2)C(=O)Nc1ccc(N2CCOCC2)cc1` (centres undefined), which Potency is on record?
Answer: inconclusive: 14.1 µM [activator, single point]

Question: Which “activity change, positive = activation” value does the source give for `COc1ccc(N(C)S(=O)(=O)c2cccc(C(=O)Nc3ccc(OC)nc3)c2)cc1` here?
Answer: inactive: -18.6%

Question: With `COc1ccc(C)cc1NC(=O)C(Sc1nnnn1C)c1ccccc1` (centres undefined) as the compound, how does the “activity change, positive = activation” value read?
Answer: inactive: -1.01%

Question: Which Potency does the source give for `O=C(Nc1ccccc1)c1cnc2ccccc2n1` here?
Answer: inconclusive: 31.6 µM [activator, single point]

Question: For `O=C(N/N=C/c1ccccc1)c1cc(-c2ccc3c(c2)OCO3)n[nH]1`, which “activity change, positive = activation” value is on record?
Answer: inactive: 15.4%

Question: With `Oc1ccccc1/C=N/Nc1ncc(Br)cn1` as the compound, how does the “activity change, positive = activation” value read?
Answer: inactive: -73.4%

Question: With `COc1cccc(CN(C)C(=O)c2ccc3nccnc3c2)c1` as the compound, how does the “activity change, positive = activation” value read?
Answer: inactive: -7.64%

Question: With `CC(=O)Nc1ccc(S(=O)(=O)N2CCC(c3nc4ccccc4[nH]3)CC2)cc1` as the compound, how does the “activity change, positive = activation” value read?
Answer: inactive: 23.5%

Question: For `CC(C)c1ccc(C(=O)Nc2ccc(-c3nc4ccccc4s3)c(Cl)c2)cc1`, which Potency is on record?
Answer: inconclusive: 0.005 µM [activator, full curve, poor fit]

Question: For `COc1cccc(-n2c(-c3ccco3)nc3c(cnn3-c3ccccc3C)c2=O)c1`, which Potency is on record?
Answer: inconclusive: 31.6 µM [activator, single point]

Question: With `CN1CCN(C(=O)c2cc(-c3ccccc3)on2)CC1` as the compound, how does the Potency read?
Answer: inconclusive: 11.2 µM [activator, partial curve]

Question: Which Potency does the source give for `O=C1C(C=NCc2ccco2)=C(O)c2ccccc21` here?
Answer: inconclusive: 15.8 µM [activator, single point]

Question: Which “activity change, positive = activation” value does the source give for `O=C(c1cn(-c2ccccc2)nc1-c1ccccc1)N1CCOCC1` here?
Answer: inactive: -21%

Question: Which Potency does the source give for `Cc1occc1-c1nnc(SCC(=O)Nc2ccccn2)o1` here?
Answer: active: 10 µM

Question: With `COc1ccc(F)cc1S(=O)(=O)NCc1ccccc1` as the compound, how does the Potency read?
Answer: inconclusive: 10 µM [activator, partial curve, poor fit]

Question: For `COc1ccc(C(=O)NCC(=O)OCC(=O)N2CCc3ccccc32)cc1`, which “activity change, positive = activation” value is on record?
Answer: inactive: -3.56%

Question: With `CCCc1nnc(NC(=S)Nc2ccccc2)s1` as the compound, how does the Potency read?
Answer: inconclusive: 17.8 µM [activator, partial curve, poor fit]

Question: With `CN1CCN(c2ccccc2NC(=O)c2ccc(N3CCCCC3)c([N+](=O)[O-])c2)CC1` as the compound, how does the “activity change, positive = activation” value read?
Answer: inactive: -28.3%

Question: Which Potency does the source give for `CCc1ccc(OCC(=O)Nc2ccc(-c3nc4ccccc4o3)c(O)c2)cc1` here?
Answer: inconclusive: 12.6 µM [activator, partial curve]

Question: For `Cc1nn(C)c(C(=O)N2CCOCC2)c1Cl`, which “activity change, positive = activation” value is on record?
Answer: inactive: -3.44%

Question: Which Potency does the source give for `COc1cc(-c2nc3n(n2)C(c2ccc(F)cc2)C2=C(CCCC2=O)N3)cc(OC)c1OC` (centres undefined) here?
Answer: inconclusive: 20 µM [activator, single point]

Question: With `COc1cc(/C=N\NC(=O)c2ccc(Cn3nc([N+](=O)[O-])c(Cl)c3C)o2)ccc1O` as the compound, how does the Potency read?
Answer: inconclusive: 0.562 µM [activator, single point]

Question: With `Cc1ccc(N2C(=O)c3n[nH]c(C)c3C2c2ccco2)cc1` (centres undefined) as the compound, how does the Potency read?
Answer: inconclusive: 35.5 µM [activator, single point]

Question: With `Nc1nc2nccc(-c3cccnc3)n2n1` as the compound, how does the Potency read?
Answer: inconclusive: 20 µM [activator, partial curve]

Question: With `Clc1ccc(-c2c[n+](Cc3ccc(Cl)c(Cl)c3)c3n2CCC3)cc1` as the compound, how does the “activity change, positive = activation” value read?
Answer: inactive: -25.5%

Question: With `CC1(C)Cc2nc3sc4c(=O)[nH]cnc4c3cc2CS1` as the compound, how does the Potency read?
Answer: inconclusive: 7.08 µM [activator, partial curve, poor fit]

Question: With `Cc1ccc(S(=O)(=O)Nc2cc(Cl)c3oc4c(c3c2)C(=O)CC(C)(C)C4)cc1` as the compound, how does the “activity change, positive = activation” value read?
Answer: inactive: -4.08%

Question: For `COc1cccc(CNc2nc3nc(C)c(Cl)c(C)n3n2)c1`, which Potency is on record?
Answer: inconclusive: 17.8 µM [activator, single point]

Question: With `N#C/C(=C\c1cccs1)C(=O)Nc1nccs1` as the compound, how does the Potency read?
Answer: inconclusive: 8.91 µM [activator, partial curve]

Question: With `Cc1ccc(/C=N/NC(=O)C2(C)CC2(Br)Br)cc1` (centres undefined) as the compound, how does the Potency read?
Answer: inconclusive: 0.631 µM [activator, full curve, poor fit]

Question: For `COc1cc2nc(CN(C)Cc3ccc(C(C)(C)C)cc3)[nH]c(=O)c2cc1OC`, which “activity change, positive = activation” value is on record?
Answer: inactive: 13.6%

Question: For `Cc1ccc(C(=O)N2CCc3ccccc32)o1`, which Potency is on record?
Answer: active: 7.94 µM

Question: For `Cc1ccc2c(N)c(C#N)sc2n1`, which Potency is on record?
Answer: inconclusive: 0.0126 µM [activator, full curve, poor fit]

Question: With `O=C(Nc1ccccc1C(F)(F)F)c1noc2c1CCCCC2` as the compound, how does the Potency read?
Answer: active: 11.2 µM

Question: Which Potency does the source give for `Clc1c(CSc2nc3ccccc3o2)nc2ccccn12` here?
Answer: active: 14.1 µM

Question: With `COc1ccc(OCCn2cc(/C=N/NC(=O)c3ccncc3)c3ccccc32)cc1` as the compound, how does the “activity change, positive = activation” value read?
Answer: inactive: -37.3%

Question: For `C=CCNC(=O)/C(C#N)=C/c1ccccc1OCc1ccc(C(=O)OC)cc1`, which Potency is on record?
Answer: inconclusive: 0.562 µM [activator, partial curve]

Question: Which Potency does the source give for `CCOc1ccc2nc(N3CCCC(C(=O)NCCc4ccc(SC)cc4)C3)sc2c1` (centres undefined) here?
Answer: active: 20 µM

Question: For `CSc1ccccc1NC(=O)c1ccc(Cl)s1`, which Potency is on record?
Answer: inconclusive: 11.2 µM [activator, single point]

Question: With `O=C(c1ccc(C#CC2(O)CCCCC2)cc1)N1CCN(C(c2ccccc2)c2ccccc2)CC1` as the compound, how does the “activity change, positive = activation” value read?
Answer: inactive: -1.61%

Question: Which Potency does the source give for `NC(=O)C1CCN(c2nc(-c3ccc(Br)cc3)cs2)CC1` here?
Answer: active: 3.98 µM

Question: For `CCOC1CS(=O)(=O)CC1OCC` (centres undefined), which Potency is on record?
Answer: inconclusive: 0.0032 µM [activator, full curve, poor fit]

Question: With `Cc1ccc(CCC(=O)Nc2ccccc2F)s1` as the compound, how does the Potency read?
Answer: inconclusive: 11.2 µM [activator, partial curve]

Question: Which Potency does the source give for `Cc1nc(SCC#N)c2c(C)c(C)sc2n1` here?
Answer: inconclusive: 5.62 µM [activator, single point]

Question: Which Potency does the source give for `CCOC(=O)c1[nH]c(C)c(C(=O)Nc2ccc(C)c(Cl)c2)c1C` here?
Answer: inconclusive: 35.5 µM [activator, single point]

Question: Which “activity change, positive = activation” value does the source give for `Cc1ccc(CN(Cc2ccco2)C(=O)c2cccc(C)c2)cc1` here?
Answer: inactive: -25%

Question: For `CC(C)COc1ccc(Nc2ncnc3ccc(Br)cc23)cc1`, which “activity change, positive = activation” value is on record?
Answer: inactive: -0.926%

Question: Which Potency does the source give for `O=C(Nc1ccc2oc(-c3ccccc3)nc2c1)C1CCCO1` (centres undefined) here?
Answer: active: 11.2 µM

Question: For `Nc1nc(-c2cccnc2)nn1C(=O)c1ccco1`, which Potency is on record?
Answer: inconclusive: 12.6 µM [activator, partial curve, poor fit]

Question: With `Cc1ccc(Oc2nc3c(c(=O)n(Cc4ccccc4Cl)c(=O)n3C)n2C)cc1C` as the compound, how does the Potency read?
Answer: inconclusive: 3.98 µM [activator, single point]

Question: For `OCCN(CCO)c1ccc(C(c2ccc(Cl)cc2)c2ccc(N(CCO)CCO)cc2Cl)c(Cl)c1`, which Potency is on record?
Answer: inconclusive: 35.5 µM [activator, single point]

Question: Which Potency does the source give for `Cc1cccc(NC(=O)C(=O)NCCCc2ccccc2)c1` here?
Answer: active: 10 µM

Question: Which Potency does the source give for `Cc1ccc(/C(O)=C2/C(=O)C(=O)N(Cc3cccnc3)C2c2ccccn2)cc1` (centres undefined) here?
Answer: inconclusive: 0.0032 µM [activator, full curve, poor fit]

Question: Which “activity change, positive = activation” value does the source give for `O=C(COC(=O)c1cccnc1Cl)c1ccc(Cl)cc1Cl` here?
Answer: inactive: -4.51%

Question: With `Cc1c(-c2nc(N)nc(Nc3ccc(F)cc3)n2)oc2ccccc12` as the compound, how does the Potency read?
Answer: active: 15.8 µM

Question: With `COc1cc2ccc([C@H](C)NCC#N)cc2cc1OC` as the compound, how does the activity change, positive = activation read?
Answer: inactive: -7.27% [at 9.22 µM]

Question: Which Potency does the source give for `COc1ccc(CNc2nc(-c3ccco3)nn2C(=O)CC(C)C)cc1` here?
Answer: active: 12.6 µM

Question: With `Cc1cccnc1NC(=S)NC(=O)c1cccs1` as the compound, how does the Potency read?
Answer: active: 3.16 µM

Question: Which Potency does the source give for `O=C(N/N=C/C(Br)=C/c1ccccc1)c1n[nH]c2c1CCC2` here?
Answer: active: 10 µM

Question: Which Potency does the source give for `O=C(Nc1ccc2c(c1)CCC2)c1cnc(Cl)c(Cl)c1` here?
Answer: inconclusive: 20 µM [activator, single point]

Question: With `N#CCSCC(=O)Nc1ccccc1` as the compound, how does the Potency read?
Answer: inconclusive: 1.12 µM [activator, partial curve]

Question: For `CCOc1ccc(OCCCN(C)C)cc1`, which Potency is on record?
Answer: inconclusive: 12.6 µM [activator, single point]

Question: Which Potency does the source give for `CNC(=O)c1ccsc1NC(=O)c1sc2ccccc2c1Cl` here?
Answer: active: 12.6 µM

Question: For `COCCn1c(C)cc(C(=O)CSc2nc(C)c(C)c(C)n2)c1C`, which “activity change, positive = activation” value is on record?
Answer: inactive: -24.3%

Question: For `Cc1ccc(S(=O)(=O)N2CCCCC2)cc1NC(=O)c1ccc2c(=O)n3c(nc2c1)CCCCC3`, which “activity change, positive = activation” value is on record?
Answer: inactive: -45.1%

Question: Which Potency does the source give for `CN(C)c1cccc(N=C2C=C(N3CCOCC3)CC(C)(C)C2)c1` here?
Answer: inconclusive: 0.0032 µM [activator, full curve, poor fit]

Question: For `COC(=O)c1cccc(C(=O)Nc2ccc(C)cc2Br)n1`, which Potency is on record?
Answer: inconclusive: 35.5 µM [activator, single point]

Question: Which Potency does the source give for `CCOc1ccccc1-n1c(CN2CCN(C(=O)c3ccco3)CC2)nc2ccccc2c1=O` here?
Answer: inconclusive: 11.2 µM [activator, partial curve]

Question: For `COc1cccc(C(=O)Oc2ccc3c(C)cc(=O)oc3c2C(C)=O)c1`, which Potency is on record?
Answer: inconclusive: 0.178 µM [activator, full curve, poor fit]

Question: Which Potency does the source give for `CCCOc1ccc(C(O)CCNC(CC(=O)O)c2ccccc2)cc1` (centres undefined) here?
Answer: inconclusive: 3.55 µM [activator, partial curve]

Question: With `COc1cccc(CN(Cc2ccco2)S(=O)(=O)c2ccc(S(=O)(=O)NCc3ccccc3)cc2)c1OC` as the compound, how does the “activity change, positive = activation” value read?
Answer: inactive: -24.8%

Question: Which “activity change, positive = activation” value does the source give for `COc1ccc(Cl)cc1C(=O)Nc1ccc2c(c1)OCO2` here?
Answer: inactive: 15.1%

Question: For `N#Cc1ccc(NC(=O)C2CC(c3ccc(F)cc3)=NO2)cc1` (centres undefined), which Potency is on record?
Answer: inconclusive: 4.47 µM [activator, partial curve]

Question: For `CCOC(=O)NCN1C(=O)C2C3C=CC(C3)C2C1=O` (centres undefined), which “activity change, positive = activation” value is on record?
Answer: inactive: 3.57%

Question: With `COc1cccc(NC(=O)CSc2nnc(C)s2)c1` as the compound, how does the Potency read?
Answer: inconclusive: 6.31 µM [activator, partial curve, poor fit]

Question: Which Potency does the source give for `COc1cccc(-c2ccc(SCc3ccccn3)nn2)c1` here?
Answer: active: 11.2 µM

Question: Which “activity change, positive = activation” value does the source give for `Oc1ccc(/C=N\Nc2cc(N3CCOCC3)nc(N3CCOCC3)n2)c(O)c1` here?
Answer: inactive: -2.11%

Question: For `CN(C)/C=C/C(=O)c1ccc(Oc2ccccc2)cc1`, which Potency is on record?
Answer: active: 12.6 µM

Question: With `CN(C)S(=O)(=O)c1ccc2nc(NC(=O)c3cccs3)sc2c1` as the compound, how does the Potency read?
Answer: active: 11.2 µM
